# Screen size: about 360,000 compounds; about 17,000 (4.7%) were called active. The shares of active, inactive and inconclusive entries below differ from those in the screen. No stated cut-off is given here; in the data, active means activity change below about -50%; inconclusive means mostly about -30% to -49%; inactive means weaker than that.
# Assay: qHTS for Inhibitors of Inflammasome Signaling: IL-1-beta AlphaLISA Primary Screen
# Details: THP-1 LPS/ATP IL-1B secretion, 16 h; at 57.5 µM, active compounds read low
# Outline: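 Secreted IL-1B measured by AlphaLISA bead assay after 16 h compound exposure of THP-1 cells; compounds (final up to 57.5 uM) added 1 h before LPS (250 ng/mL) and ATP (1.25 mM) stimulation; lower signal means less secretion.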
# On the % scale 0 is the no-effect control and ±100 the full control effect.
row,SMILES,activity change
1,C=C1CCC[C@]2(C)C[C@H]3OC(=O)C(CNC(C)CC)[C@H]3CC12 (stereo partly drawn),active: -96.2%
2,COC(=O)C[C@@H]1C[C@H]2c3cc(NC(=O)Nc4ccccc4F)ccc3O[C@H]2[C@H](CO)O1,inactive: -14.4%
3,O=C(CN(Cc1ccccc1)S(=O)(=O)c1ccccc1)N/N=C/c1ccccc1[N+](=O)[O-],inconclusive: -32.9%
4,COc1ccc(OC)c(NC(=O)CSc2nc3c(c(=O)n(C)c(=O)n3C)n2C)c1,inactive: 11.6%
5,CN(C)Cc1ccccc1Sc1ccc(Br)cc1,inconclusive: -49.2%
6,Cc1ccc(NC(=S)NCCC(c2ccccc2)c2ccccc2)c(C)c1,inactive: -4.34%
7,C=C(C)CNC(=S)NNC(=O)CCn1c2ccccc2c2ccccc21,inconclusive: -37%
8,CCOC(=O)C1=CC[C@@H](c2ccc(OC)cc2)N(S(=O)(=O)c2ccc(C)cc2)[C@H]1CC,inactive: -6.81%
9,NNc1nc(Nc2ccccc2)nc(N2CCCCC2)n1,inconclusive: -31.9%
10,O=C(NCC1COc2ccccc2O1)Nc1ccccc1F (stereo not drawn),inconclusive: -30.7%
11,COc1ccc(/C(N)=N/OC(=O)CCC2CCCC2)cc1,inconclusive: -31%
12,CC(C)CC(N)c1csc(NC(=O)Nc2ccccc2C(C)C)n1 (stereo not drawn),inconclusive: -49.4%
13,CCCNC(=O)c1ccc(COc2ccc(Cl)cc2)o1,inconclusive: -32.8%
14,O=C(Nc1ccc(N2CCN(C(=O)c3ccccc3)CC2)cc1)c1cccnc1,active: -57.9%
15,COc1ccc(/C=C/c2c(-c3ccc(OC)cc3)oc3cccnc23)cc1,inconclusive: -30.8%
16,Cc1ccc(S(=O)(=O)N2CCC(C(=O)NCCC3=CCCCC3)CC2)c(C)c1,inactive: -17.9%
17,COc1ccc(NC(=O)CN(C)C(=O)c2ccc(-c3ccccc3Cl)o2)cc1,inconclusive: -36.8%
18,CCCCC(=O)N/N=C(C)/C=C/c1ccccc1F,inconclusive: -30.7%
19,Cc1ccc2c(c1)nnn2C1CCN(CC(=O)N(c2ccccc2)c2ccccc2)CC1,inconclusive: -43.7%
20,CCOc1ccccc1N(CC(=O)Nc1ccccc1)S(=O)(=O)c1ccccc1,inactive: -1.11%
21,C=CC[C@H](CC(=O)N(CCO)Cc1ccccc1)C(=O)N[C@@H](COC(=O)[C@@H](CC=C)Cc1ccc(F)cc1)Cc1c[nH]c2ccccc12,inconclusive: -48.1%
22,O=c1c2ccccc2sc2c(CO)ccc(NCCN3CCCCC3)c12,active: -101%

row,SMILES,activity change
1,Brc1ccc2c(c1)[C@H]1OCC[C@H]1[C@@H](c1cccs1)N2,inconclusive: -30.7%
2,COc1ccc(/C=C/C(=O)N2CCC(c3ccccc3)C2)cc1 (stereo not drawn),inconclusive: -43%
3,CC(=O)N(C)Cc1ccc(C(=O)CCl)cc1,active: -106%
4,O=C(NCCc1c[nH]c2ccccc12)C1CCN(Cc2ccc(Br)cc2)CC1,inconclusive: -38.6%
5,O=C(CCC(=O)Nc1ccc(F)cc1)N/N=C/c1cccc(Br)c1,inconclusive: -35.4%
6,Clc1ccc(/C=C/c2nc3ccccc3[nH]2)c(Cl)c1,inconclusive: -40.1%
7,O=C(Cc1ccccc1)Nc1ccc(Cl)cn1,inconclusive: -36.3%
8,COc1ccc(-c2nc3cc(C)c(Br)c(C)n3c2Cc2ccccc2)cc1OC,inactive: 21%
9,O=[N+]([O-])c1ccccc1/C=C/C=N/Nc1nc(N2CCCCC2)nc(N2CCCCC2)n1,inactive: 9.98%
10,CN(C)c1nc(N)c([N+](=O)[O-])c(N2CCCCCC2)n1,inconclusive: -30.4%
11,COc1cc(C(=O)OC2CSCC2NC(=O)c2ccccc2)cc(OC)c1OC (stereo not drawn),inactive: 16.2%
12,O=C(NCCCc1ccccc1)c1cc([N+](=O)[O-])ccc1Cl,inconclusive: -42.8%
13,CCCCNS(=O)(=O)c1ccc(S(=O)(=O)NCc2ccncc2)cc1,inconclusive: -30%
14,Cc1ccccc1C(=O)N1CCN=C1SCc1ccc([N+](=O)[O-])cc1,active: -77.3%
15,COc1ccc(Nc2nc(-c3cccs3)nc3ccccc23)cc1,inactive: -2.88%
16,Cc1cccc(OCc2nc(C#N)c(N3CCCC3)o2)c1,active: -55%
17,CC(Oc1ccccc1)C(=O)Nc1nc(-c2ccccn2)cs1 (stereo not drawn),active: -103%
18,COC(=O)C1NN=C(C(=O)c2ccc(Br)cc2)C1c1cccc(Br)c1 (stereo not drawn),inactive: 19.6%
19,Cc1cc([N+](=O)[O-])nn1CCC(=O)NC1CCCCCC1,inactive: 7.11%
20,O=C(CSc1nc2nn(-c3ccccc3)c(=O)c-2c2n1CCCCC2)Nc1cccc(F)c1,inconclusive: -45.1%
21,C=CCNc1nc(-c2sc(NC(=O)CC)nc2C)cs1,inconclusive: -35.5%
22,CCCCN(C(=O)CSc1ncn[nH]1)c1c(N)n(Cc2ccccc2)c(=O)[nH]c1=O,inactive: 6.34%

row,SMILES,activity change
1,Cc1cccc(NC(=O)CN2CCC(C(=O)c3ccc4c(c3)OCCO4)CC2)c1,inconclusive: -40.5%
2,CCOC(=O)c1cnc2c(C)c(Cl)ccc2c1NCCCN1CCOCC1,inconclusive: -38.5%
3,CN/N=C(\Cc1nc2ccccc2[nH]1)c1ccc([N+](=O)[O-])cc1,inconclusive: -37.2%
4,C/C(=N\NC(=O)COc1cc(C)cc(C)c1)c1cccc(NC(=O)C2CCC2)c1,inconclusive: -45.7%
5,O=S(=O)(c1ccc(F)cc1)c1nc(-c2ccc(F)cc2)oc1NCCN1CCOCC1,inconclusive: -31.8%
6,CCOc1ccc(S(=O)(=O)N2CCN(C(=O)c3cc4ccccc4o3)CC2)cc1,inconclusive: -35.8%
7,CCC(=O)NC(=S)NNC(=O)COc1ccc(Br)cc1,inactive: 0%
8,N#Cc1cccc(NC(=O)c2cc(C3CCCCN3C(=O)CCCc3ccccc3)on2)c1 (stereo not drawn),inconclusive: -33.5%
9,COc1ccc(C(=O)NC2CCCCCC2)cc1S(=O)(=O)N1CCCc2ccccc21,inactive: -0.715%
10,CCN(CC)c1ccc(/C=C(/C#N)c2nc3ccc(C)cc3[nH]2)c(OC(C)C)c1,inconclusive: -37.5%
11,O=C1C(Cl)=C(N2CCCCC2)C(=O)C(Cl)=C1c1cnc(N2CCCCC2)s1,active: -71.3%
12,O=C1NC[C@H](c2ccccc2)OC(=O)[C@H](Cc2ccc(F)cc2)CC/C=C/C[C@H]1CC(=O)N(CCO)Cc1ccccc1,inconclusive: -42%
13,CC(=O)OC(C(=O)NC1CCCCC1)c1ccccc1Cl (stereo not drawn),inconclusive: -34.8%
14,N#Cc1cnn2c3c(cnc12)C(=O)N1CCc2ccccc2C1C3 (stereo not drawn),inconclusive: -36%
15,OC(CNC1CCCC1)COc1ccc(Cl)cc1 (stereo not drawn),inconclusive: -39.8%
16,Cc1cc([N+](=O)[O-])ccc1NC(=O)Nc1ccccc1F,active: -99.4%
17,CN(C1CCCCC1)S(=O)(=O)c1cccc(C#N)c1,inactive: 19.3%
18,O=C(Nc1nccs1)c1ccc(-c2ccccc2Cl)o1,active: -88.9%
19,COC(=O)c1ccc(Cn2c(O)c(N=O)c3ccccc32)o1,inconclusive: -47%
20,CN(Cc1cnn(C)c1)C(=O)c1ccc(OC2CCN(CCc3ccccc3)CC2)cc1,inconclusive: -37.7%
21,CCCS(=O)(=O)NCCc1csc(-c2ccc(OC)c(OC)c2)n1,inconclusive: -31.2%
22,O=C1NC(Cc2ccccc2)c2nc3ccc(F)cc3c(=O)n2-c2ncccc21 (stereo not drawn),inactive: -5.55%

row,SMILES,activity change
1,Cc1[nH]c2ccccc2c1C(=O)C(=O)N1CCN(c2ccccc2Cl)CC1,active: -75.9%
2,CC(C)c1cc(C(=O)NCCc2cccs2)c(N)s1,inactive: -8.54%
3,COc1ccc(NS(=O)(=O)c2ccc(C)c(NC(=O)NC3CCCCC3)c2)cc1,active: -73.6%
4,Cc1ccccc1Cn1c(C)c(C(=O)NCc2ccc(Cl)c(Cl)c2)sc1=O,inconclusive: -39.7%
5,O=C(CSc1ncnc2c1nnn2Cc1ccccc1F)N1CCN(c2ccccc2)CC1,active: -84.2%
6,Cc1cccc(CNC(=O)c2sc(=O)n(Cc3ccccc3C)c2C)c1,inconclusive: -34.4%
7,Cn1c(Oc2ccc(Cl)cc2)c(C=O)c2ccccc21,active: -94.8%
8,COCc1cc(C)nc2sc(C(=O)NC3CCCCC3)c(N)c12,inconclusive: -41.7%
9,COc1ccc(-c2cc(=O)c3ccccc3s2)cc1,active: -59.5%
10,COc1ccc(OC)c(NC(=O)CC2SC(=Nc3ccccc3)N(CCc3ccccn3)C2=O)c1 (stereo not drawn),inconclusive: -33.3%
11,Cc1nc(SCC(=O)N2c3ccccc3Sc3ccccc32)n[nH]1,inactive: -13%
12,Cc1ccc2c(c1)/C(=C/c1ccccc1)C(=O)N2,active: -82%
13,COc1ccc(S(=O)(=O)N2CCC(C(=O)NCCc3ccc4c(c3)OCO4)CC2)cc1,inconclusive: -34.8%
14,N[C@@H](Cc1ccc(O)c(O)c1)C(=O)O,active: -107%
15,CSCc1c(C(=O)N2CCCc3ccccc32)oc2ccccc12,inactive: -0.699%
16,Cc1ccc(C)c2[nH]c(=O)c(CN(CCN3CCCC3)C(=O)Nc3cccc(Cl)c3)cc12,inconclusive: -48.9%
17,Cn1cccc1C(=O)NC(=O)COC(=O)c1ccc(S(C)(=O)=O)c([N+](=O)[O-])c1,active: -95.4%
18,COc1cc(NC(=O)c2cc(Cl)nnc2Cl)cc(OC)c1OC,inconclusive: -40.6%
19,CC(C)C[C@H](NC(=O)c1[nH]cnc1C(=O)Nc1ccc(CNC(=O)OC(C)(C)C)cc1)C(=O)OC(C)(C)C,inconclusive: -49.4%
20,Cc1ccc2c(c1)c(C)c(C)n2CC(O)Cn1nnc2ccccc21 (stereo not drawn),inconclusive: -36.5%
21,COc1ccc(COC(=O)C2=C(C)NC(=O)NC2c2cc(OC)ccc2OC)cc1 (stereo not drawn),inconclusive: -32.2%
22,Cc1cc(NS(=O)(=O)c2cn(C)nc2C)no1,inactive: -4.47%

# From PubChem BioAssay AID743279 (National Center for Advancing Translational Sciences (NCATS), 2014)
